Test results: PubChem BioAssay AID624296 (National Center for Advancing Translational Sciences (NCATS), 2012)
Among all 350,000 compounds or so, about 9,900 (2.8%) were called active. Inconclusive results, whose numbers are uncertain, are shown with a selection of clear calls. Calls follow the shape of the dose curve; as a rule, active = well fitted activation curve with a large enough effect; inconclusive = small, poorly fitted or top-dose-only effect; inactive = no such curve, though single readings can be large or run the other way. Potencies of inconclusive entries are left out as doubtful fits.

Assay: A quantitative high throughput screen for small molecules that induce DNA re-replication in MCF 10a normal breast cells. Also: nearly all actives have a fitted effect of over 50% in size. As to activity, positive = re-replication: % of control where 0% means no effect.
Details: MCF 10A DNA re-replication, Hoechst nuclear intensity, 48 h; activity, positive = re-replication: at 46.1 µM (top of the series)
Potency is read from the fitted curve at half-maximal effect; tags tell the direction and shape of the fitted curve.

Structure (SMILES) | Potency | activity, positive = re-replication
CCc1ccc(N(CC)C(=O)c2ccc3c(Cl)c4c(nc3c2)CCC4)cc1 | inconclusive [activator, single point] | 
CN1CCN(CC(O)COc2ccc(C34CC5CC(CC(C5)C3)C4)cc2)CC1 (centres undefined) | active: 14.6 µM | 
O=C(CCSCc1cccc(Cl)c1)NCCc1ccc(Cl)cc1 | inconclusive [activator, single point] | 
CCOC(=O)C1CCN(c2ncnc3c2[nH]c2cccc(OC)c23)CC1 | inconclusive [activator, single point] | 
CC/C(=N\NC(=O)c1cccnc1)c1ccc2c(c1)OCCO2 |  | inactive: -8.96%
Cc1ccccc1Sc1c(C#N)c(-c2ccccc2)nn1C | inconclusive [activator, single point] | 
CCOC(=O)C1CCN(S(=O)(=O)c2ccc(OC)c(C(=O)N3CCCCCC3)c2)CC1 | inconclusive [activator, single point] | 
Cn1cnc(S(=O)(=O)Nc2ccc(OC(F)(F)F)cc2)c1 |  | inactive: -5.89%
COc1cc(OC)cc(C(=O)NCC2CCCO2)c1 (centres undefined) | inconclusive [activator, single point] | 
CCS(=O)(=O)N1CCC(C(=O)NCCC2=CCCCC2)CC1 | inconclusive [activator, single point] | 
CC1=CC(C)(C)n2c(O)c(N=N)c3c(C)ccc1c32 | inconclusive [activator, single point] | 
CCCOC(=O)c1cc(-c2ccc(/C=C3/C(=O)N(C)C(=O)C(C#N)=C3C)o2)ccc1Cl | inconclusive [activator, single point] | 
Nc1cccc2c1C(=O)N(CCOc1ccccc1F)C2=O | active: 18.4 µM | 
CCOC(=O)C1CCCN(C(=O)c2cc3c(C)nc4ccccc4c3o2)C1 (centres undefined) |  | inactive: 19.8%
COc1ccccc1NC(=O)CN(c1ccccc1OC)S(=O)(=O)c1ccccc1 | inconclusive [activator, single point] | 
Nc1ccc2oc(-c3cc(Br)ccc3Cl)nc2c1 | inconclusive [activator, single point] | 
Cc1cc(C)c2nc(-c3ccccn3)cc(C(=O)Nc3ccc(S(=O)(=O)Nc4cc(C)on4)cc3)c2c1 | inconclusive [activator, partial curve] | 
COc1ccc(NS(=O)(=O)c2cc(NC(=O)c3ccco3)ccc2N2CCCCC2)cc1 | inconclusive [activator, single point] | 
CN(C)/C=C/C(=O)c1ccc(Br)cc1 | inconclusive [activator, partial curve, poor fit] | 
COC1=CC(=O)C=C(OC)C1=O | inconclusive [activator, single point] | 
CCCOc1ccc(C(=O)NC(=S)Nc2nc(C)c(C(=O)N(C)C)s2)cc1 |  | inactive: 0.263%
Cc1cc(C(=O)OCC(=O)N2C(C)CCCC2C)c2ccccc2n1 (centres undefined) |  | inactive: 3.65%

Structure (SMILES) | Potency | activity, positive = re-replication
Oc1c(CN2CCOCC2)cc(COCc2ccccc2)c2cccnc12 | inconclusive [activator, single point] | 
CCN1CCN(Cc2ccc(NC(=O)c3ccc(C)c(NC(=O)c4c[nH]c5cc(C(F)(F)F)ccc5c4=O)c3)cc2C(F)(F)F)CC1 | active: 11.6 µM | 
Cc1ccc(SCc2ccc(C(=O)Nc3ccccc3Br)cc2)cc1 | inconclusive [activator, single point] | 
O=C(/C=C/Nc1cccc(O)c1)c1ccccc1 | inconclusive [activator, full curve, poor fit] | 
CCn1c(SCc2ccc(F)cc2)nc2ccccc2c1=O | inconclusive [activator, single point] | 
Cc1ccccc1NC1=NC2(CCCC2)N=C(N)N1 | inconclusive [activator, partial curve, poor fit] | 
CCOC(=O)c1cc(-c2ccc(C)cc2)n(CCC(=O)NC(C)CC)c1C (centres undefined) | inconclusive [activator, partial curve, poor fit] | 
Cc1ccc(-c2cc(C(=O)Nc3ccncc3)c3ccccc3n2)cc1 | inconclusive [activator, single point] | 
COCCCn1nnnc1SCC(=O)N1c2ccccc2CC1C (centres undefined) | inconclusive [activator, full curve, poor fit] | 
COc1ccc(-c2nn3c(-c4ccccc4)nnc3s2)cc1OC | inconclusive [activator, partial curve, poor fit] | 
O=C(Nc1ccc(NC(=O)c2ccco2)cc1)c1ccc2c(c1)OCO2 | inconclusive [activator, partial curve] | 
COc1cc(C2C(C#N)=C(N)N(c3ccc(F)cc3)C3=C2S(=O)(=O)CC3)ccc1O (centres undefined) | inconclusive [activator, single point] | 
CCn1c(=O)cc(SCC(=O)N2CCN(C(=O)c3ccco3)CC2)c2ccccc21 | inconclusive [activator, partial curve, poor fit] | 
Cc1cc(N2C(=O)[C@@H]3[C@H](C2=O)[C@@H]2C[C@H]3C(Br)C2Br)no1 (some centres undefined) |  | inactive: -2.12%
Cn1c(C(O)c2ccc(Cl)cc2)nc(Cl)c1Cl (centres undefined) | inconclusive [activator, single point] | 
CCOc1cc(-c2cc(-c3ccc(C)cc3)nc(N)c2C#N)ccc1O | active: 20.6 µM | 
COc1ccc(CCn2c(-c3ccco3)nc3nc4ccccc4nc32)cc1 | inconclusive [activator, partial curve, poor fit] | 
Cc1csc(NC(=O)c2cc3c(s2)-c2ccccc2OC3)n1 | active: 14.6 µM | 
COc1cc(CNCCc2c[nH]c3ccccc23)ccc1OCc1ccccc1F | inconclusive [activator, single point] | 
Cc1c(C(=O)N(Cc2ccccc2)C2CCS(=O)(=O)C2)oc2ccccc12 (centres undefined) |  | inactive: 2.93%
CCOc1cccc(C(=O)Nc2ccc3c(c2)OCCO3)c1 |  | inactive: -0.757%
Brc1ccccc1CN1CCN(Cc2c[nH]c3ccccc23)CC1 | inconclusive [activator, single point] | 
